Reference: patent US20250019442A1 (LANOVA MEDICINES, published 2025)

T1: human VEGF protein (human, UniProt P15692-4 27-191, limits assumed)
T1 sequence (looked up): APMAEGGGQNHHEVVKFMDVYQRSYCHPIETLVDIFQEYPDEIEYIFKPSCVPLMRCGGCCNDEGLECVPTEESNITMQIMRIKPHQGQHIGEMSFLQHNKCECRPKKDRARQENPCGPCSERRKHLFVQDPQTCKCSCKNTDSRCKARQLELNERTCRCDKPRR


Tests used:
[1] = molecular target: T2, human PD-1 overexpressed on cells (human, UniProt Q15116 25-288); experiment: cell-based or functional assay
[2] = molecular target: T2, human PD-1 overexpressed on cells; experiment: flow cytometry on CHO-K1 cells overexpressing human PD-1, PE secondary antibody
Experimental: (§1) To further determine PD-1 binding activity of the bispecific antibodies, CHO-K1 cells overexpressing human PD-1 were incubated with different concentrations of anti-PD1-VEGF bispecific antibodies and reference antibodies at 4° C. for 30 minutes. Then, the cells were washed twice with FACS buffer and stained with PE conjugated secondary antibody at 4° C. for 30 minutes. After wash twice with FACS buffer, MFI of PE was analyzed by a NovoCyte flow cytometer.

human VEGF protein [3] = molecular target: T1, human VEGF protein; experiment: cell-based or functional assay
human PD1 = molecular target: T3, human PD1 (human, UniProt Q15116 in part, limits assumed); experiment: ELISA, human PD1 coated, anti-human IgG-HRP detection
T3 construct: Recombinant protein for ELISA; also called human PD1 protein
Experimental: (§2) To evaluate PD1 binding activity of the test bispecific antibodies, human PD1 and cynomolgus PD1 diluted in PBS were coated on a microplate respectively at 4° C. overnight. Three-fold dilution of test antibodies starting from 100 nM were added to each well and incubated for 1 hours at 25° C. Then, the plates were washed with ELISA washing buffer (1×DPBS with 0.5% Tween-20) and incubated with peroxidase conjugated anti-human IgG secondary antibody for 60 minutes at 25° C. After washed four times with ELISA washing buffer, the plates were detected by TMB-ELISA substrate solution, then stopped by ELISA stopping solution and analyzed by microplate reader at OD450 nm.

human VEGF protein [4] = molecular target: T1, human VEGF protein; experiment: ELISA, human VEGF coated at 0.5 ug/ml, anti-human IgG-HRP detection
cynomolgus PD1 = molecular target: T4, cynomolgus PD1 (cynomolgus, UniProt B0LAJ3 25-170); experiment: ELISA, cynomolgus PD1 coated, anti-human IgG-HRP detection
T4 construct: Recombinant protein for ELISA; also called cynomolgus PD1 protein
Experimental: as §2

[5] = molecular target: T2, human PD-1 overexpressed on cells; experiment: flow cytometry on CHO-K1 cells overexpressing human PD-1; column headed OD450 but the text says MFI of PE; parameters: unit not given here
Experimental: as §1

human VEGF protein [6] = molecular target: T1, human VEGF protein; experiment: cell-based or functional assay; remark: listed apart in the source

cynomolgus PD1, sequence (B0LAJ3 entry or part of it limits assumed, form in doubt): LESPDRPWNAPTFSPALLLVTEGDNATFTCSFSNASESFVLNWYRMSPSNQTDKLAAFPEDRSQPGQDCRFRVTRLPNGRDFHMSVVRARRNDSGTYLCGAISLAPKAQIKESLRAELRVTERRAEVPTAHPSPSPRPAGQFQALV
T2 sequence (Q15116 25-288): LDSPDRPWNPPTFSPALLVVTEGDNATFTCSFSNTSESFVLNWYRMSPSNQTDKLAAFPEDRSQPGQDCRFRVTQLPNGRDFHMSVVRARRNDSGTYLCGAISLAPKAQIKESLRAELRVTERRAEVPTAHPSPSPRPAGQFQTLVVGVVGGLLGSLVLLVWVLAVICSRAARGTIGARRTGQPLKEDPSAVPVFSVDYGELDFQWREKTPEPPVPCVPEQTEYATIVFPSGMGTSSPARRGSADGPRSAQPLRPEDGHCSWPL
human PD1, sequence (Q15116 25-167 limits assumed): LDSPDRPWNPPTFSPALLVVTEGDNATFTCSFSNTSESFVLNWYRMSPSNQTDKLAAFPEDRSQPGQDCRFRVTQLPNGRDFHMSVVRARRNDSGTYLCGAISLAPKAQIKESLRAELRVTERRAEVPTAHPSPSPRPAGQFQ

Row | EC50 (nM), PD1 blocking activity (PD1 reporter gene assay) [1] [nM] | Top (RLU), PD1 blocking activity (PD1 reporter gene assay) [1] [RLU] | EC50 [2] [nM] | EC50 (nM), VEGF Reporter Gene Assay (human VEGF protein [3]) [nM] | Top (RLU), VEGF Reporter Gene Assay (human VEGF protein [3]) [RLU] | EC50 (human PD1) [nM] | Top (OD450) (human PD1) | EC50 (human VEGF protein [4]) [nM] | Top (OD450) (human VEGF protein [4]) | EC50 (cynomolgus PD1) [nM] | Top (OD450) (cynomolgus PD1) | Top (OD450) [5] | IC50 (nM), Inhibition of VEGF-Induced Cell Proliferation (HUVEC) (human VEGF protein [6]) [nM] | Binder
1 | 7.84 | 207000 | 1.36 | 0.344 | 23500 | 0.078 | 1.59 | 0.068 | 2.2 | 0.394 | 1.3 | 625000 |  | B12D1-6 (bispecific antibody, human IgG1, kappa, Full-length IgG-VHH fusion; 4 anti-PD-1 VHH (VH18) per molecule; produced transiently in CHO-K1 cells; also called anti-PD1-VEGF bispecific antibody B12D1-6) heavy: EVQLVESGGGLVQPGGSLRLSCAASGYTFTNYGMNWVRQAPGKGLEWVGWINTYTGEPTYAADFKRRFTFSLDTSKSTAYLQMNSLRAEDTAVYYCAKYPHYYGSSHWYFDVWGQGTLVTVSS[left out - human IgG1 constant region with changes]GGGGSGGGGSGGGGSGGGGSEVQLVESGGGLVQPGGSLRLSCAVSGNIYNRNFMGWFRQAPGKGREGVSAIYTGTSRTYYADSVKGRFTISRDNAKNTVYLQMNSLRPEDTAVYYCAADLRDGFWDTGVWNTWGQGTLVTVSSGGGGSGGGGSGGGGSGGGGSEVQLVESGGGLVQPGGSLRLSCAVSGNIYNRNFMGWFRQAPGKGREGVSAIYTGTSRTYYADSVKGRFTISRDNAKNTVYLQMNSLRPEDTAVYYCAADLRDGFWDTGVWNTWGQGTLVTVSS light: DIQMTQSPSSLSASVGDRVTITCSASQDISNYLNWYQQKPGKAPKVLIYFTSSLHSGVPSRFSGSGSGTDFTLTISSLQPEDFATYYCQQYSTVPWTFGQGTKVEIKRTVAAPSVFIFPPSDEQLKSGTASVVCLLNNFYPREAKVQWKVDNALQSGNSQESVTEQDSKDSTYSLSSTLTLSKADYEKHKVYACEVTHQGLSSPVTKSFNRGEC
2 | 37.9 | 141000 | 3.95 | 0.493 | 23800 | 0.169 | 1.63 | 0.114 | 2.16 | 0.958 | 1.3 | 617000 | 0.907 | B12D1-9 (bispecific antibody, human IgG1, kappa, Full-length IgG-VHH fusion; 2 anti-PD-1 VHH (VH18) per molecule; also called anti-PD-1-VEGF bi-specific antibody B12D1-9) heavy: EVQLVESGGGLVQPGGSLRLSCAASGYTFTNYGMNWVRQAPGKGLEWVGWINTYTGEPTYAADFKRRFTFSLDTSKSTAYLQMNSLRAEDTAVYYCAKYPHYYGSSHWYFDVWGQGTLVTVSSASTKGPSVFPLAPSSKSTSGGTAALGCLVKDYFPEPVTVSWNSGALTSGVHTFPAVLQSSGLYSLSSVVTVPSSSLGTQTYICNVNHKPSNTKVDKKV[left out - human IgG1 Fc with changes]GGGGSGGGGSGGGGSGGGGSEVQLVESGGGLVQPGGSLRLSCAVSGNIYNRNFMGWFRQAPGKGREGVSAIYTGTSRTYYADSVKGRFTISRDNAKNTVYLQMNSLRPEDTAVYYCAADLRDGFWDTGVWNTWGQGTLVTVSS light: DIQMTQSPSSLSASVGDRVTITCSASQDISNYLNWYQQKPGKAPKVLIYFTSSLHSGVPSRFSGSGSGTDFTLTISSLQPEDFATYYCQQYSTVPWTFGQGTKVEIKRTVAAPSVFIFPPSDEQLKSGTASVVCLLNNFYPREAKVQWKVDNALQSGNSQESVTEQDSKDSTYSLSSTLTLSKADYEKHKVYACEVTHQGLSSPVTKSFNRGEC
3 | 5.09 |  | 2.3 | 0.567 | 24400 |  |  | 0.134 | 2.22 |  |  | 296000 |  | B12D1-10 (bispecific antibody, human IgG1, kappa, Full-length IgG-VHH fusion; 2 anti-PD-1 VHH (VH8M1) per molecule; also called anti-PD1-VEGF bispecific antibody B12D1-10) heavy: EVQLVESGGGLVQPGGSLRLSCAASGYTFTNYGMNWVRQAPGKGLEWVGWINTYTGEPTYAADFKRRFTFSLDTSKSTAYLQMNSLRAEDTAVYYCAKYPHYYGSSHWYFDVWGQGTLVTVSSASTKGPSVFPLAPSSKSTSGGTAALGCLVKDYFPEPVTVSWNSGALTSGVHTFPAVLQSSGLYSLSSVVTVPSSSLGTQTYICNVNHKPSNTKVDKKV[left out - human IgG1 Fc with changes]GGGGSGGGGSGGGGSGGGGSEVQLVESGGGLVQPGGSLRLSCAVSGNIYNRNFMGWFRQAPGKGLEGVSAIYTGTSRTYYADSVKGRFTISRDNSKNTVYLQMNSLRAEDTAVYYCAADLREGFWDTGVWNTWGQGTLVTVSS light: DIQMTQSPSSLSASVGDRVTITCSASQDISNYLNWYQQKPGKAPKVLIYFTSSLHSGVPSRFSGSGSGTDFTLTISSLQPEDFATYYCQQYSTVPWTFGQGTKVEIKRTVAAPSVFIFPPSDEQLKSGTASVVCLLNNFYPREAKVQWKVDNALQSGNSQESVTEQDSKDSTYSLSSTLTLSKADYEKHKVYACEVTHQGLSSPVTKSFNRGEC
